Test results taken from publication PMC10726135.
This is one part of the list. At the low end of the ranking the order means little. The protein was read in a cell extract, so binding may be indirect.

What follows are sequences tested against T1, HNF4alpha8 (COS-7 nuclear extract) (UniProt P41235-5) (assay: protein-binding microarray). Settings: COS-7 nuclear extract on double-stranded Agilent 4x180k PBM; binding buffer, salt, pH and temperature not given; high values mean tight binding; double strand, one strand shown; sequences stand for … in …GCCTAGGGAGATTAGAGTATCGGTCGA.
T1 sequence: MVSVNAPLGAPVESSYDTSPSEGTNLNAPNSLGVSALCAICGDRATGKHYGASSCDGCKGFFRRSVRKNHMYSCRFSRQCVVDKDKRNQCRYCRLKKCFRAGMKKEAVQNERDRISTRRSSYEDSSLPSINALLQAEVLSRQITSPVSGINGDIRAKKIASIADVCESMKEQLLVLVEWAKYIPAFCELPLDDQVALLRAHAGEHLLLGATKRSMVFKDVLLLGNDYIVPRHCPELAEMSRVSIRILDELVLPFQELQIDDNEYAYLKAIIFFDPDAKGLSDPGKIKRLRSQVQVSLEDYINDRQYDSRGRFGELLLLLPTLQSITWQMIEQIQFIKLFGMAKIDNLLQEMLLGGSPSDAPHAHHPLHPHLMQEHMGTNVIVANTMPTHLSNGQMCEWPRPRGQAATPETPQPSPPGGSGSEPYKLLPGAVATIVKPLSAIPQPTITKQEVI

Sequence	binding signal (log2 normalized intensity)
GTCAAAGGTCAATGAAGCTCTTGCTGGTCA	2.84
GTTGCTGTGCTGCCCTCTTGTGGCCATTTG	1.56
CCTGCCCTTTGTCCCTCCTGCTAGTCACAT	3
GTGCTCCTCCCCATCTCAGCCTCTCAGGTC	1.84
AGGACCTTGGACTGAAGACTGGAACTGGGC	1.67
GTAAATGCTGGAGATGAGGCTCAGACCTGA	-1.25
GCCCTGGAATGGGATCCAGGTGCAAAGTAC	5.12
GTAACCCCCCAGGAGCGAGTCAAGGGTCAA	4.62
TTCCTCCCTTGGAATGTGACCTTAGACCCC	8.83
CCAGAGTCTACAGGTCAGACCTGTTTCAAA	0.867
AACACGGACTTTGAAGCTCCAAGATAGGAA	1.6
ACCCAACCTGTTACAAAACAGGTTCTTCCA	0.712
GTGAACTTTGCCCTCTCTTTCTGGAACCTA	5.67
CTGCTGGGGGTAAAGTGGATTGCTGGCCTT	1.09
TGTTTAAATAGTGATAATGGATGGCAAATA	0.175
CTCATCCCAGGGATAATGATAAAGAGATTG	-1.25
TATCAACCAATGTATTCATGAGCATGCTTC	0.298
TAGGATAAGGGTAGGGCCAATCTCTGGCAT	-1.23
AGTACCAGGTCAAAAGTTCAAACTTTATTT	3.8
AGCTCCCATAGAGTCCACCACTGACCTTAG	3.83
AATGCCCAGGATTCCTTTTTCACTGCTCAC	-0.85
ACGGGCTATTTGGACTAGGCAAAAGACAGT	-1.42
TCCCTATTGTTATCCAGGCCACGCTGCTAA	-0.859
AGAGGAGAAGCAAATGAAAAGAATATCTCA	-1.33
CATTTTTCCCCTGACAAGTATCTCGGTCAA	1.53

Sequence	binding signal (log2 normalized intensity)
ATCTTCAGTCTAGAATCTGCAGCCCCTTTT	3.24
CATATCACCTAGGTGGAATCTTATACACAC	0.446
ACTACCTCTTTAGGCTGGACTCTGACCCAT	7.54
TGGACTACTTCATGTCCTGTAATTGGGGGA	-1.2
GTTCGAATCCCAGCGGTGCCTCAACCGAGC	-1.27
CTTCCCCTCCTTAGGAAAGAGACATCTGGG	-0.714
TTGGTGCCTGCAGAGCCTCCCCATTGTAGA	2.06
ACTATTTGGTGCACAAGAGGGCAGTATTTG	1.23
TGTCCGGACACCAACCTTTGATCATCCGCA	4.74
TTCCTGCTGACCCTCTCCCCACCATTAACC	4.46
CACATTTCTGAGCTGTGGAAACTCCACATG	-1.29
TTCCCACCAAACCTGAAAAACCTCTCTCCA	-1.33
GTGTTTTCCGGGGGCGGTTTTTCCATTGTA	1.44
AAAGGTCACCAGTGAGCCAAGGTACCCTGG	1.29
TTGAGCTGGATGACCTTTGTCCTGGCACAA	8
TTGACCCTTAGGATGTGGGGTATCAGGTGG	3.04
GGCTTAAGATAAGGGACATCAACAAAGAAG	-1.18
AAGTTACCTACGGGTCAAGGGTTCAGGGCT	2.77
TGTAGCCAGATAAGAGCTATCAATGACCCA	2.21
AATGCTCTGGCCTTTTTTTTGTGTGTGTGT	2.93
AGCATGGCCCAGGGACTCAGGCACACAAAA	-1.37
ACTTATTGTGTTATGTACTTAGTGTTTTAT	2.19
AAGCAAGGCTCTTAGCAGAAGCCCTCCTGG	-1.33
ACAATTTACAGTGTTCAAAGGTAGCTTCCT	2.23
CTGACCCTCAGGTTGCCCTAGTGACTCTAG	2.05

Sequence	binding signal (log2 normalized intensity)
CTCTCTCCAAGGCACAGAGAAGAATTTCGA	-1.45
CCAGCTCTGTTGCTTATCTTCTCTTTTACT	0.621
CCTGGGGAGCGGCCTGCACCTGTTTCTGGA	-1.27
CCTCGGCTCTGCGCAGGCGCAGTCCTCTCT	-1.29
TCGCCCGAGCGCTGCTTCTCGTCCCCGCCC	4.01
GCTGGGGGACGCGACCTCCGGGAAAGCTAT	-1.4
CAGGCCTCCCTCCCTCCCCCATTAGAGGCA	4.51
CCAAGTTCAAAGGTTATCTGCTGGCAGAAT	4.89
AACCCAAAGTCTTTCTCTTTCAAGATAACA	0.326
AAGTCCACAAAGATAAGAAAGAATCAGCAC	-1.11
GCCTCGCCCGAGCTGTGCGGTAGGCATTGA	-1.42
TGGAGATCAGAGTCCAGCTGTGCCCCAGTC	3.23
GGATTTTAGCAGATAACTCCTGTGCTGGAA	-0.543
TCTTCACCAAATCATTTCACTTCCTTTGTT	1.13
CAATGCTGGAGGGACTGTGATGAAGGCAGA	-1.35
GAGATGAGGCTCAGACCTGACCTTTGGATT	8.85
GCGAACCATTTCCCATGGGACTGGCAAAGC	-1.2
GATCTGAGATGCTGGGTGGCATAGTTGATG	0.395
TAGTAGGGTCAAAGTCTGGATCCGTTAACA	4.83
TGCTGGAGAAAGAGGGGAAGGATGAATTTA	-1.11
TCAATAAATCACACGAAACAAGTAGCAGTT	-1.24
GTTATCTGATCAAATTCCACACCCCCCACT	5.35
CAGGGTCAATGTCCCCTTAGGAATAGTATC	2.54
AATTGAGATGAGATGGTCAAAGGTTGATGG	4.61
AGCAGGCACCCCGGGAGCGCCGAGCACGTC	-1.23

Sequence	binding signal (log2 normalized intensity)
GGACAGCCTTTTTCAAGCAATGTTTGCCTC	0.144
GCCTCCCGGAGAGGCCCCGCCCCGTCCCCG	6.24
CCTTTATCGAACCTATTGTTTAATCTTTGA	3.24
CTATCTGCCTGCAGGAGAGAGCAAAGTCCA	8.21
AGGGGAGGGTGACCAGATTAATTACCCACA	-1.2
GGGCCTCAAGGGAATCTGCTGTAATAAAGC	-1.36
GGGACTTTGCCCTTTTTAATGTTTCATTAA	4.68
GATTGACCTGACCCAGGCGAGGGTTGCTGC	-0.366
ATAGTGACCACCTGGTGGACCCAGCTGGTA	3.14
TTGGATCCAGCTCCTGATGTTTGGTCTTAT	1.37
ATAAACACAATTCTTTGGTACTTTGAGCCA	2.82
CTCCTCTCTGTAGTCCTCAGCAATAACTTA	-0.755
GTCTTAGTGCATTCCTTCCCAAGTGCTAGC	0.303
CCTTAGGATGTGGGGTATCAGGTGGTGATG	1.67
CAGGGCTAAAGTCAGGGGCAGGTGGAGGTG	-1.05
ACTTGGACCAGCTTTTGGAAGGACTTCGAA	0.929
TATAAAAGGCTGTCACACTGGCCTTTGCCC	5.84
TCCACTGCATCAGTGCTGACCTACCTGACC	2.98
TCATTCCTAGCCCCACCAAACTGACAGGTT	3.39
ATGAGACATTGTGTCAATTCCAAAGTTCAA	5.43
GTGAAACATCCCACTCAAAGGTCAGGGCTA	2.41
AACTAGCAACTTGGACCTTGATAGGAGTTA	3.62
TCCAGCTGCCAGGGAGACAAAGTGTCACAA	-1.18
TGCCGACCTCCTGACTAAAGTTCATTGCTT	2.94
GGCATCAGCCCCAATGGCTAAGGTCACCAT	3.1

Sequence	binding signal (log2 normalized intensity)
CCCTTGCTCTGTTTTCTGACGCAACAGAAA	-0.887
GGGTCAATTAGCTTGAGCGAGACAGCGGGT	-1.01
TTATCTCTGTAAAAGCCAGCATTTCTGTGG	0.912
GAGGCCTAGGCAGTCCACAGACAAAGGCCC	-1.25
CCCCAGTTCCCTGGGTCGCCAAGCCGGAGG	-1.22
TAAACCAACTATAGAAAGCCTTTGAACTGT	2.81
ATGAGGATACTGATAACATGAGGTAGAGGG	-1.37
AGATGCCGTCGGCACACACGCATGGCCGGC	-1.36
TCCTCTTCAACTGATTCTTGCTTCGCTCTC	-0.0208
TTAAATCCTATCCTAGGGTTAAAGTCTACA	5.12
CTTAGACAACACACCACCTGCTACTCCCTT	-1.35
GAACCGTTAGCAACCGGAAGTGGCTAGAGG	-1.2
CCACCAGCTGCTTCGGCCAGCACAGGAGGC	-1.35
AGGTCAAGCAATGCTGGGGACCTTTGGCCT	6.8
TCTACCTGACCTCCCAAAATTCTTCACATA	0.286
ACAATTCTTCCTTCATCTGGAGACAAATGC	1.16
TGTAATAAGGAGTTGTGTGATAAGGAGGGC	0.467
GGGGGGACGCGCTTGGGCGACGGACGCGCC	-1.35
CTGCAGCGCCACATTCTGAGCCAGCACTTC	-1.28
TAACTTACAGTGCACTTTGACCGCTCATTT	6.77
AGGAAACAAGGGTACCAACAGGTCCAAGGT	1.52
GCCAAGGAAGCGATGGGCTGGCCCTGAGCC	-1.31
CCTAAACAGTTACCGAGAGGTAACTCCCCC	3.13
ACACATGCCCCTTCCCTCCCTGCAATGGCC	3.85
TGCAATTTGTTCTTTCTCCAACTGCTCCTC	0.625

Sequence	binding signal (log2 normalized intensity)
AATTCTCATGGAGGACTTTGGCCTTTTGTG	6.71
AACTTTGGACTTTTATGTTAAGATCAAACA	2.25
AGTCACTATCACCTCTCCCACCTGAATTAT	2.4
CATTATAAGTTGTCCTAGGAAGCAACAGAC	0.63
ACAGCTAGCAGGTGACAAATCCAGGATCAA	-1.23
GGAGGGCGGGGAGTCTCCTGGGTAATCACC	-1.12
AGGTAAAGGCATGCTTGGCATCCCTGTGGT	-1.06
TCAGGCACAGCTCGACCTTTGACCTTCGGC	10.9
CCATGCCATGCATTTCAGAATTTTGCTCTG	-0.387
GAACCAAGATATGCTAACATCCCTTGCAGA	-1.31
TACTTACAGACTTTCAACATTATGAAATCT	-1.22
ACAAAAGAAAATGTGCCCTTTGGACAGAAA	5.7
GATAATATAGTCACTATACAACTAGGCTAC	-1.39
GCCACCCTCTGGCCACCAGTTATTCATGTC	0.887
TCAGTTTTGCCATCAGCTCCCTCCCCTGGT	3.13
AATAGCCCCAAATTCCTTTCAAACTGTATT	1.37
CATTTGCCATTTCTGAGCAAATATTTGGGG	1.53
CAGTTAAGCAGGTTCACATTTTTGTCATCT	1.29
GGCAGACAGGTTGGAGACGCAGAGAAGCAC	-1.26
AGCTGACAGATGGTGACCAGACTACCTCTT	-0.762
